# Results taken from PubChem BioAssay (Tox21).
# Inconclusive results, whose numbers are uncertain, are shown with a selection of clear calls. For some assays here: Potencies of inconclusive entries are doubtful fits and often do not repeat. The source holds several records for some structures; these can differ, active in one and inactive in another. Activity calls are given as the source filed them. Unless noted, calls follow the shape of the dose curve; as a rule, active = well fitted curve in the direction sought with a large enough effect in the repeat runs; inconclusive = weak or mixed curves; inactive = no such curve, though single readings can be large; an effect the other way counts as inactive or inconclusive.
# Columns and labels:
# [1] = qHTS assay to identify small molecule antagonists of the estrogen receptor alpha (ER-alpha) signaling pathway using the BG1 cell line - cell viability counter screen (AID 743081); conditions: BG1Luc4E2 viability, CellTiter-Fluor, 22 h; activity change, negative = cytotoxicity: at 70.3 µM (top of the series);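 also: compound given together with 17beta-estradiol as the ER stimulus; nearly all actives have a fitted effect of over 45% in size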; also: potency is read from the fitted curve at half-maximal effect; as to activity change, negative = cytotoxicity: % is scaled to controls: 0 for no effect and ±100 for the full control effect
# [2] = target: Peroxisome proliferator-activated receptor gamma (Homo sapiens) (UniProt P37231); test: qHTS assay to identify small molecule antagonists of the peroxisome proliferator-activated receptor gamma (PPARg) signaling pathway (AID 743191; calls by dose curve; also: % is scaled to controls: 0 for no effect and ±100 for the full control effect; nearly all actives have a fitted effect of over 30% in size); conditions: HEK293H PPARg-UAS-bla, beta-lactamase ratio, antagonist, 17 h; ratio activity, negative = inhibition: at 62.6 µM (top of the series) unless noted
# Chain of UniProt P37231 (P37231 whole entry, looked up): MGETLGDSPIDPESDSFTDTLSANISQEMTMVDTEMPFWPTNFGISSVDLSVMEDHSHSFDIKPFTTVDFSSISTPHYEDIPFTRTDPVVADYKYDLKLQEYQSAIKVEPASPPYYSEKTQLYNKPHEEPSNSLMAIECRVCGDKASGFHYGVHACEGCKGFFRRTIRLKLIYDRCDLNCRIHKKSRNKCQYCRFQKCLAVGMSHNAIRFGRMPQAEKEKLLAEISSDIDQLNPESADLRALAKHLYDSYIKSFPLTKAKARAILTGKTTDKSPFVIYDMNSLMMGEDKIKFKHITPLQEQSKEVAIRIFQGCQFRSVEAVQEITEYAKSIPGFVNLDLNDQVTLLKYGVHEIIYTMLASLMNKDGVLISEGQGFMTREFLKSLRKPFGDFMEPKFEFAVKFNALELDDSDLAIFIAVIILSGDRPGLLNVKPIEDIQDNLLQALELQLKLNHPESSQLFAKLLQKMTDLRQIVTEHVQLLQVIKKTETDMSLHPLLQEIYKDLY
# How it was run: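 Beta-lactamase reporter under UAS control in HEK293H PPARg-bla cells; compound treatment 17 h at 37C. Read-out: fluorescence intensity after 1 h room-temperature incubation with LiveBLAzer B/G FRET substrate.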
# [3] = target: Cytochrome P450 2C19 (Homo sapiens) (UniProt P33261); test: Cytochrome P450 Family 2 Subfamily C Member 19 (CYP2C19) small molecule antagonists: luciferase reporter qHTS assay (AID 1671197); also: nearly all actives have a fitted effect of over 65% in size; also: potency is read from the fitted curve at half-maximal effect; as to activity change, negative = inhibition: % is scaled to controls: 0 for no effect and ±100 for the full control effect
# Chain of UniProt P33261 (P33261 whole entry, looked up): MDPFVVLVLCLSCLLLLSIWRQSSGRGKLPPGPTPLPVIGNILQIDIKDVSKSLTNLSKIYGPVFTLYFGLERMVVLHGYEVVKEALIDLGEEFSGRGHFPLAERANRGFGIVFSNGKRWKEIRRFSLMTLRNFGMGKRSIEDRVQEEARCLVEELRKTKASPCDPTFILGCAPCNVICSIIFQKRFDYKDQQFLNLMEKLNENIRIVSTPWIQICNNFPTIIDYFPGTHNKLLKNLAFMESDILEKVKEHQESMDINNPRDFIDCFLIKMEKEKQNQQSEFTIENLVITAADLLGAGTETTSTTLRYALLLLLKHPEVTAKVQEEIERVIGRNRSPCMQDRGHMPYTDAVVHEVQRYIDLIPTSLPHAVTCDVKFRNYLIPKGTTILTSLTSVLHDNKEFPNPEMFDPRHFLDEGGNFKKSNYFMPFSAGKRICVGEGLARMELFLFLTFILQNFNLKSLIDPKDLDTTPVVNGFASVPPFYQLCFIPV
# How it was run: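 Quantitative high-throughput screen of the Tox21 library using CYP2C19 with proluciferin substrate. Reaction: NADPH regeneration, 37C, 1 h, after 10 min compound preincubation at room temperature. Readout: luminescence.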
# [4] = target: Cytochrome P450 2C9 (Homo sapiens) (UniProt P11712); test: Cytochrome P450 Family 2 Subfamily C Member 9 (CYP2C9) small molecule antagonists: luciferase reporter qHTS assay (AID 1671198); also: nearly all actives have a fitted effect of over 50% in size; also: potency is read from the fitted curve at half-maximal effect; as to activity change, negative = inhibition: % is scaled to controls: 0 for no effect and ±100 for the full control effect
# Chain of UniProt P11712 (P11712 whole entry, looked up): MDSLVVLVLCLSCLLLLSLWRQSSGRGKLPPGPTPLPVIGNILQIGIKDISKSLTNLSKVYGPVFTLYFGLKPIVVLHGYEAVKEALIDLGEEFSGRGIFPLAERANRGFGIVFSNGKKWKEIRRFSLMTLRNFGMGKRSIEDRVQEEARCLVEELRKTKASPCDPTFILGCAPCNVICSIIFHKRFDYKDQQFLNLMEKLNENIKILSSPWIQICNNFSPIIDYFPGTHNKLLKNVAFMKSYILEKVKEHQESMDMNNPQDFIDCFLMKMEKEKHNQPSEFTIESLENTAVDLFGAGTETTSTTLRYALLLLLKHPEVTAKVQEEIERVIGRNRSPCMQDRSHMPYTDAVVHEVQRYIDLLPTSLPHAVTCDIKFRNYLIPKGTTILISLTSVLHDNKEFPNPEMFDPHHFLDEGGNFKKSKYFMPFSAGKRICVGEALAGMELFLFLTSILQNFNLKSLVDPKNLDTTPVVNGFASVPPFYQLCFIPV
# How it was run: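 Enzyme-substrate mix preincubated with compound 10 min at room temperature; reaction started with NADPH regeneration solution, 1 h 37C. Luminescent luciferin product read after 20 min detection reagent.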
# [5] = target: Cytochrome P450 1A2 (Homo sapiens) (UniProt P05177); test: Cytochrome P450 Family 1 Subfamily A Member 2 (CYP1A2) small molecule antagonists: luciferase reporter qHTS assay (AID 1671199); also: nearly all actives have a fitted effect of over 50% in size; also: potency is read from the fitted curve at half-maximal effect
# Chain of UniProt P05177 (P05177 whole entry, looked up): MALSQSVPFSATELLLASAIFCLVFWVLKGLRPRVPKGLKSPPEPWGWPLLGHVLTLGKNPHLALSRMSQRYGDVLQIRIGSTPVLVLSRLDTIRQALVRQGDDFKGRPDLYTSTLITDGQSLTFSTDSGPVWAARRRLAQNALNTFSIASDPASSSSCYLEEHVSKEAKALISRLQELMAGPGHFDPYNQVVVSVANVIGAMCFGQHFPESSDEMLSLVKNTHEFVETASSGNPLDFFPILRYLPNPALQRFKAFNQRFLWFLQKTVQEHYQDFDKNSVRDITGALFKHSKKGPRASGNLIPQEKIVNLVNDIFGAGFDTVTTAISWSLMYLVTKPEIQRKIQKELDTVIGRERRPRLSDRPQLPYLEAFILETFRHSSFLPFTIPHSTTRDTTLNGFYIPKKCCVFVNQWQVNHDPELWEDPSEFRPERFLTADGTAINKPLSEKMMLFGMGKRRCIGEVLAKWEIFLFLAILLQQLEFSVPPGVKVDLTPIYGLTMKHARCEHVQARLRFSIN
# How it was run: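 Luminescence from luciferin formed by CYP1A2 from a proluciferin substrate, read 20 min after detection reagent. Compound was pre-incubated 10 min with enzyme-substrate, and reaction started with NADPH regeneration solution for 1 h at room temperature; furafylline control.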
# [6] = qHTS assay for small molecule disruptors of the mitochondrial membrane potential (AID 720635); conditions: HepG2 mitochondrial membrane potential, Mito-MPS dye ratio; ratio activity, negative = MMP loss: at 83.2 µM (top of the series) unless noted; also: potency is read from the fitted curve at half-maximal effect
# How it was run: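 Mitochondrial membrane potential tracked with Mito-MPS dye, red aggregates (ex 540/em 590 nm) against green monomers (ex 490/em 535 nm). Compound treatment 1 hr at 37C, dye 30 min in HepG2.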
# [7] = target: Glucocorticoid receptor (Homo sapiens) (UniProt P04150); test: qHTS assay to identify small molecule antagonists of the glucocorticoid receptor (GR) signaling pathway (AID 720692; active = well fitted inhibition curve with a large enough effect in the signal ratio in the repeat runs, not every such curve was filed as active; inconclusive = weak or mixed curves, or effect the other way; inactive = no such curve, though single readings can be large or run the other way; the % refers to the signal ratio; also: potency is read from the fitted curve at half-maximal effect); conditions: GR-bla HeLa, beta-lactamase FRET ratio, dexamethasone-stimulated, 18 h; activity change, negative = inhibition: at 58.5 µM (top of the series) unless noted
# Chain of UniProt P04150 (P04150 whole entry, looked up): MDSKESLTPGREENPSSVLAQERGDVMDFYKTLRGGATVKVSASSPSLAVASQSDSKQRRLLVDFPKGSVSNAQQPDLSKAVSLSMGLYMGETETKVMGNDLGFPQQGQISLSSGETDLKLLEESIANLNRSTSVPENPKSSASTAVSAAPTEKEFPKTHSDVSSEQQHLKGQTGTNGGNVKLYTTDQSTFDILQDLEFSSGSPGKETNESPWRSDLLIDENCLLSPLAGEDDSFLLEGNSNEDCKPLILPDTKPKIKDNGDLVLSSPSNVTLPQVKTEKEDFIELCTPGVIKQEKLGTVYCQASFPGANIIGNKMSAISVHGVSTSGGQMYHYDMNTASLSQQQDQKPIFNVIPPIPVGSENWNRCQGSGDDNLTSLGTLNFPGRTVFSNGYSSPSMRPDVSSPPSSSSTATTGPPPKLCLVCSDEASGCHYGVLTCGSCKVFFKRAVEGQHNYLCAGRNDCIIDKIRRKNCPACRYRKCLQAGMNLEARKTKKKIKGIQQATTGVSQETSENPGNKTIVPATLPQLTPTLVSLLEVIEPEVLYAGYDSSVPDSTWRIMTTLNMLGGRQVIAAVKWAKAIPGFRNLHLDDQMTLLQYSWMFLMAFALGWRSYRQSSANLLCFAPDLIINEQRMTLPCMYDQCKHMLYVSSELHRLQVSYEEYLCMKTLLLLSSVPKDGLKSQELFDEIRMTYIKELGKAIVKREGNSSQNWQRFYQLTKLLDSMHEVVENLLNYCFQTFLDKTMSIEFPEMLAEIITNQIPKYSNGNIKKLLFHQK
# How it was run: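 Inhibition of dexamethasone-driven (5 nM final) beta-lactamase expression was measured in GRE-reporter HeLa cells over 18 h at 37C. Fluorescence was read after 2 h with the B/G FRET substrate at room temperature.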
# [8] = qHTS assay for identifying genotoxic compounds that show differential cytotoxicity against isogenic chicken DT40 cell lines with known DNA damage response pathways - Rev3 mutant cell line (AID 743014); conditions: chicken DT40 Rev3-/- viability, CellTiter-Glo, 40 h; activity, negative = cytotoxicity: at 68.4 µM (top of the series); also: nearly all actives have a fitted effect of over 55% in size; also: potency is read from the fitted curve at half-maximal effect
# [9] = qHTS assay to identify small molecule antagonists of the estrogen receptor alpha (ER-alpha) signaling pathway - cell viability counter screen (AID 743074; calls by dose curve;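 also: HEK293 cells carrying ER-alpha-UAS-bla reporter stimulated with 17beta-estradiol; nearly all actives have a fitted effect of over 45% in size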; also: potency is read from the fitted curve at half-maximal effect)
# [10] = qHTS assay for small molecule agonists of the antioxidant response element (ARE) signaling pathway (AID 743202; active = well fitted activation curve with a large enough effect in the signal ratio in the repeat runs, not every such curve was filed as active; inconclusive = weak or mixed curves, or effect the other way; inactive = no such curve, though single readings can be large or run the other way; the % refers to the signal ratio; also: potency is read from the fitted curve at half-maximal effect); conditions: HepG2 ARE-bla reporter, beta-lactamase FRET, 16 h; activation: at 73.3 µM (top of the series) unless noted
# How it was run: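 After 16 hours of compound treatment at 37 C, HepG2 cells with a stably integrated ARE-driven beta-lactamase reporter were loaded 2 hours at room temperature with LiveBLAzer B/G FRET substrate and fluorescence intensity measured.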
# [11] = qHTS assay to identify small molecule antagonists of the peroxisome proliferator-activated receptor delta (PPARd) signaling pathway - cell viability counter screen (AID 743213); conditions: PPARd-bla HEK293H viability, CellTiter-Glo luminescence, 17 h; viability change, negative = cytotoxic: at 62 µM (top of the series) unless noted; also: % is scaled to controls: 0 for no effect and ±100 for the full control effect; nearly all actives have a fitted effect of over 50% in size
# How it was run: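 Agonist-stimulated (L165041, 300 nM final) HEK293H PPARd UAS-bla cells are exposed to compounds for 17 h at 37 C, and ATP-based luminescence (CellTiter-Glo) from the same wells reports cytotoxicity.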
# [12] = qHTS assay to identify small molecule antagonists of the thyroid receptor (TR) signaling pathway - cell viability counter screen (AID 743064); conditions: GH3.TRE-Luc viability, CellTiter-Fluor, 24 h; activity change, negative = cytotoxic: at 70.3 µM (top of the series) unless noted; also: nearly all actives have a fitted effect of over 50% in size; also: potency is read from the fitted curve at half-maximal effect
# How it was run: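 Plate GH3.TRE-Luc cells; incubate 4 h at 37 °C; add compound, then T3 to 1 nM final; incubate 23.5 h; add CellTiter-Fluor; incubate 30 min at 37 °C, 5% CO2; read fluorescence.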
# [13] = qHTS assay for identifying genotoxic compounds that show differential cytotoxicity against isogenic chicken DT40 cell lines with known DNA damage response pathways - wild type cell line (AID 743012); conditions: DT40 wild type chicken cells viability, CellTiter-Glo, 40 h; activity change, negative = cytotoxicity: at 68.4 µM (top of the series) unless noted; also: potency is read from the fitted curve at half-maximal effect; nearly all actives have a fitted effect of over 60% in size
# How it was run: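 Viability by ATP luminescence (CellTiter-Glo, 30 min RT) after 40 h compound treatment at 37 C/5% CO2, using 300 parental DNA repair-proficient DT40 cells per well.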
# [14] = qHTS assay for identifying genotoxic compounds that show differential cytotoxicity against isogenic chicken DT40 cell lines with known DNA damage response pathways - Rad54/Ku70 mutant cell line (AID 743015); conditions: DT40 Rad54/Ku70 mutant viability, CellTiter-Glo, 40 h; activity change, negative = cytotoxicity: at 66.8 µM (top of the series); also: potency is read from the fitted curve at half-maximal effect; nearly all actives have a fitted effect of over 60% in size
# [15] = qHTS assay for small molecule agonists of the p53 signaling pathway (AID 651631; calls by dose curve; also: nearly all actives have a fitted effect of over 15% in size; also: potency is read from the fitted curve at half-maximal effect); conditions: HCT-116 p53RE-bla reporter, beta-lactamase FRET ratio, 16 h; activation: at 73.3 µM (top of the series) unless noted
# How it was run: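 HCT-116 p53RE-bla reporter line, 16 h compound treatment at 37 °C, then fluorescence after 2 h with B/G FRET substrate.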
# [16] = target: Peroxisome proliferator-activated receptor gamma (Homo sapiens) (UniProt P37231); test: qHTS assay to identify small molecule agonists of the peroxisome proliferator-activated receptor gamma (PPARg) signaling pathway (AID 743094; active = well fitted activation curve with a large enough effect in the signal ratio in the repeat runs, not every such curve was filed as active; inconclusive = weak or mixed curves, or effect the other way; inactive = no such curve, though single readings can be large or run the other way; the % refers to the signal ratio; also: % is scaled to controls: 0 for no effect and ±100 for the full control effect); conditions: HEK293H PPARg-UAS-bla, beta-lactamase FRET ratio, 17 h; activation: at 57 µM (top of the series) unless noted
# How it was run: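 Agonist activity was taken from a beta-lactamase reporter (FRET substrate, 1 h at room temperature) in HEK293H cells carrying a PPARg UAS-bla construct. Compounds in DMSO were incubated 17 h at 37C after a 5 h cell pre-incubation.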
# [17] = qHTS assay to identify small molecule phospholipidosis (PLD) inducers (AID 1259344; active = well fitted curve in the direction sought with a large enough effect; inconclusive = small, poorly fitted or top-dose-only effect, or another doubt; inactive = no such curve, though single readings can be large; an effect the other way counts as inactive or inconclusive; also: potency is read from the fitted curve at half-maximal effect)
# How it was run: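 Phospholipid accumulation was scored by imaging: fixed, Hoechst-counterstained HepG2 cells stained with LipidTOX Red after 24 h compound exposure at 37 C. Read-outs were pit count and pit intensity per well or per cell, with amiodarone and DMSO controls.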
# [18] = target: Estrogen receptor (Homo sapiens) (UniProt P03372); test: qHTS assay to identify small molecule agonists of the estrogen receptor alpha (ER-alpha) signaling pathway using the BG1 cell line (AID 743079); conditions: BG1Luc4E2 cells, ERE-luciferase agonist, 22 h; activation: at 70.3 µM (top of the series) unless noted; also: nearly all actives have a fitted effect of over 20% in size; also: potency is read from the fitted curve at half-maximal effect
# Chain of UniProt P03372 (P03372 whole entry, looked up): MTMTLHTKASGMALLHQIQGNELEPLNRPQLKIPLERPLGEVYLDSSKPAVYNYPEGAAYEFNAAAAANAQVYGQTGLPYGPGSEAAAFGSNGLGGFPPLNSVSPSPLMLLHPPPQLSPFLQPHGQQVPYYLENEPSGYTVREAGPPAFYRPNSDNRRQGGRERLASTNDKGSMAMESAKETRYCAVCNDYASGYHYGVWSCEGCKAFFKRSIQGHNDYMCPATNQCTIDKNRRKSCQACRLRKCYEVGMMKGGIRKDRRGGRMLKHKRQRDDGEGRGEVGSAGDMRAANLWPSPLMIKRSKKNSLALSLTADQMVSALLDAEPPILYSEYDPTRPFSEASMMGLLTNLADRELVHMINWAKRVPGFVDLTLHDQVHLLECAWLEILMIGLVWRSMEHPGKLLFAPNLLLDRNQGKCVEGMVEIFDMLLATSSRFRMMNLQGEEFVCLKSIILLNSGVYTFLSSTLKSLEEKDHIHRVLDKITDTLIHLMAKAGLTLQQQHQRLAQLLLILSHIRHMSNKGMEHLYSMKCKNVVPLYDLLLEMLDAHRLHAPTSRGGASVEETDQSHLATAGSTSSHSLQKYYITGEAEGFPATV
# [19] = target: Cytochrome P450 2D6 (Homo sapiens) (UniProt P10635); test: Cytochrome P450 Family 2 Subfamily D Member 6 (CYP2D6) small molecule antagonists: luciferase reporter qHTS assay (AID 1671196)
# Chain of UniProt P10635 (P10635 whole entry, looked up): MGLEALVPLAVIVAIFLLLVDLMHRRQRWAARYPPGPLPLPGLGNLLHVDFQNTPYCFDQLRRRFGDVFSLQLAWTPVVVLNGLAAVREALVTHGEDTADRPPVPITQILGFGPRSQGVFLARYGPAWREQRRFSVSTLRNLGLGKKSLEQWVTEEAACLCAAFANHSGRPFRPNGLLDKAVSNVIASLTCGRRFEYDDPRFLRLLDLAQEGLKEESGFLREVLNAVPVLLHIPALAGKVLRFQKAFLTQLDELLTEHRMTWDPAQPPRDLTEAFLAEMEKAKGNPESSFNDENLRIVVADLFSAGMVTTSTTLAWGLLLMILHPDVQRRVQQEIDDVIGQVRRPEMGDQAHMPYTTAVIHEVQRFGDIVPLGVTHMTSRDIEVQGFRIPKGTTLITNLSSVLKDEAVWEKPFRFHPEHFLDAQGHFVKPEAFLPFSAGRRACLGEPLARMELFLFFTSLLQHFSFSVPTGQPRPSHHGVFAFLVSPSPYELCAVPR
# How it was run: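 CYP2D6 activity was followed as luminescence from its luciferin product after a 1 h NADPH-driven reaction at room temperature. Enzyme-substrate mix and compound were pre-incubated for 10 min, and the signal was read 20 min after adding detection reagent.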
# Tags tell the direction and shape of the fitted curve or compound fluorescence and quenching.
compound,measurement,setting,value
CC(C)[N+](=O)[O-],Potency,[1],inactive
same,"ratio activity, negative = inhibition",[2],inconclusive: 1.71%
same,Potency,[3],"inconclusive: 88.1 µM [inhibitor, single point]"
same,Potency,[4],inactive
same,Potency,[5],"inconclusive: 62.4 µM [inhibitor, partial curve]"
C=CC(=O)N(C)C,Potency,[3],inactive
[P]#[In],Potency,[6],"inconclusive: 0.217 µM [activator, full curve, poor fit]"
same,Potency,[7],inactive
same,Potency,[8],"inconclusive: 0.0027 µM [cytotoxic, full curve, poor fit]"
same,Potency,[9],inactive
same,Potency,[2],inactive
ClCCN1CCCC1,Potency,[10],"inconclusive: 26.6 µM [rising, partial curve]"
same,Potency,[3],"inconclusive: 4.36 µM [inhibitor, single point]"
same,Potency,[4],inactive
COCc1cnc(C2=NC(C)(C(C)C)C(=O)N2)c(C(=O)O)c1 (stereo unspecified),Potency,[6],"inconclusive: 68.6 µM [inhibitor, single point]"
same,Potency,[2],inactive
same,Potency,[10],"inconclusive: 68.6 µM [rising, single point]"
same,Potency,[3],"inconclusive: 79.6 µM [inhibitor, single point]"
same,Potency,[5],"inconclusive: 71 µM [inhibitor, single point]"
CC(=O)O.CC(=O)O.CC(=O)O.CC(=O)O.CC(=O)O.CC(=O)O.CC(=O)O.O.O.[Cr].[Cr].[Cr],Potency,[10],"inconclusive: 7.16 µM [falling, full curve]"
same,Potency,[11],inactive
CC(=O)c1ccc(-c2ccccc2)cc1,Potency,[3],active: 31.7 µM
Nc1ccc(N)c2ccccc12,Potency,[7],active: 24.5 µM
C=CCOCC1CO1 (stereo unspecified),"activity change, negative = inhibition",[7],inconclusive: 8.93%
same,Potency,[2],inactive
same,Potency,[11],inactive
same,Potency,[4],inactive
same,Potency,[5],"inconclusive: 77.7 µM [inhibitor, partial curve, poor fit]"
C[C@@H]1CN(C2CCC(C#N)(c3ccc(F)cc3)CC2)CC[C@]1(C(=O)O)c1ccccc1 (stereo partly specified),Potency,[6],inactive
same,"activity change, negative = inhibition",[7],inconclusive: 1.31% [at 27 µM]
same,Potency,[12],inactive
same,Potency,[11],inactive
OC(Cn1cncn1)(c1ccc(F)cc1)c1ccccc1F (stereo unspecified),Potency,[6],inactive
same,Potency,[13],"inconclusive: 61.1 µM [cytotoxic, partial curve]"
same,Potency,[8],"inconclusive: 15.4 µM [cytotoxic, full curve]"
same,Potency,[14],"inconclusive: 48.6 µM [cytotoxic, partial curve]"
same,Potency,[9],inactive
CCN(CC)CCO[C@H]1CC[C@@]2(C)C(=CC[C@@H]3[C@@H]2CC[C@]2(C)C(=O)CC[C@@H]32)C1,activation,[15],inconclusive: -5.13%
same,Potency,[8],active: 0.531 µM
same,Potency,[9],"inconclusive: 16.9 µM [cytotoxic, partial curve, poor fit]"
same,Potency,[16],inactive
same,Potency,[17],"inconclusive: 5.01 µM [activator, partial curve]"
CCC(C)C(C)(COC(N)=O)COC(N)=O (stereo unspecified),Potency,[2],inactive
same,Potency,[5],inactive
CN1C(=O)CN=C(c2ccccc2)c2cc([N+](=O)[O-])ccc21,Potency,[15],"inconclusive: 0.668 µM [falling, partial curve]"
same,Potency,[7],"inconclusive: 1.34 µM [activator, full curve]"
same,Potency,[14],"inconclusive: 29.8 µM [cytotoxic, single point]"
same,Potency,[12],"inconclusive: 26.6 µM [cytotoxic, partial curve, poor fit]"
same,Potency,[18],"inconclusive: 29.8 µM [inhibitor, partial curve, poor fit]"
same,Potency,[1],inactive
same,Potency,[16],inactive
same,Potency,[4],"inconclusive: 38.9 µM [inhibitor, partial curve, poor fit]"
CC(C)(C)C(=O)C(Cl)Cl,activation,[10],inconclusive: -5.94%
same,Potency,[11],inactive
same,Potency,[19],inactive
same,Potency,[5],"inconclusive: 63.3 µM [inhibitor, partial curve, poor fit]"
F/C(COc1ccc2c(c1)[nH]c1ccccc12)=C1/CN2CCC1CC2,Potency,[15],"inconclusive: 0.596 µM [cytotoxic, partial curve, poor fit]"
same,Potency,[6],"inconclusive: 8.8 µM [activator, full curve]"
same,"activity change, negative = inhibition",[7],inconclusive: -33.4%
same,Potency,[12],active: 7.5 µM
same,Potency,[9],"inconclusive: 13.4 µM [cytotoxic, partial curve, poor fit]"
same,Potency,[18],inactive
same,Potency,[1],"inconclusive: 0.298 µM [rising, single point]"
same,activation,[16],inconclusive: -17%
same,Potency,[17],"inconclusive: 14.1 µM [activator, single point]"
C[C@H]1CC[C@]2(NC1)O[C@H]1C[C@H]3[C@@H]4CC[C@H]5C[C@@H](O)CC[C@]5(C)[C@H]4CC[C@]3(C)[C@H]1[C@@H]2C,Potency,[15],inactive
same,Potency,[8],inactive
same,Potency,[12],inconclusive: 33.5 µM [cytotoxic]
same,Potency,[18],inactive
same,Potency,[1],inactive
same,Potency,[17],"inconclusive: 4.47 µM [activator, full curve, poor fit]"
